# Screen size: about 310,000 compounds; about 14,000 (4.5%) showed an effect of 50% or more. Effects have a minus sign here. The list shows a part of the results.
# Biological target: human ether-à-go-go-related gene (hERG) potassium channel (human, UniProt Q12809)
# Assay: primary screen, population patch clamp on CHO cells stably expressing hERG
# 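Further: peak tail current of the secondary pulse compared with the same well before compound.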
# human ether-à-go-go-related gene (hERG) potassium channel, sequence (Q12809 whole entry, looked up): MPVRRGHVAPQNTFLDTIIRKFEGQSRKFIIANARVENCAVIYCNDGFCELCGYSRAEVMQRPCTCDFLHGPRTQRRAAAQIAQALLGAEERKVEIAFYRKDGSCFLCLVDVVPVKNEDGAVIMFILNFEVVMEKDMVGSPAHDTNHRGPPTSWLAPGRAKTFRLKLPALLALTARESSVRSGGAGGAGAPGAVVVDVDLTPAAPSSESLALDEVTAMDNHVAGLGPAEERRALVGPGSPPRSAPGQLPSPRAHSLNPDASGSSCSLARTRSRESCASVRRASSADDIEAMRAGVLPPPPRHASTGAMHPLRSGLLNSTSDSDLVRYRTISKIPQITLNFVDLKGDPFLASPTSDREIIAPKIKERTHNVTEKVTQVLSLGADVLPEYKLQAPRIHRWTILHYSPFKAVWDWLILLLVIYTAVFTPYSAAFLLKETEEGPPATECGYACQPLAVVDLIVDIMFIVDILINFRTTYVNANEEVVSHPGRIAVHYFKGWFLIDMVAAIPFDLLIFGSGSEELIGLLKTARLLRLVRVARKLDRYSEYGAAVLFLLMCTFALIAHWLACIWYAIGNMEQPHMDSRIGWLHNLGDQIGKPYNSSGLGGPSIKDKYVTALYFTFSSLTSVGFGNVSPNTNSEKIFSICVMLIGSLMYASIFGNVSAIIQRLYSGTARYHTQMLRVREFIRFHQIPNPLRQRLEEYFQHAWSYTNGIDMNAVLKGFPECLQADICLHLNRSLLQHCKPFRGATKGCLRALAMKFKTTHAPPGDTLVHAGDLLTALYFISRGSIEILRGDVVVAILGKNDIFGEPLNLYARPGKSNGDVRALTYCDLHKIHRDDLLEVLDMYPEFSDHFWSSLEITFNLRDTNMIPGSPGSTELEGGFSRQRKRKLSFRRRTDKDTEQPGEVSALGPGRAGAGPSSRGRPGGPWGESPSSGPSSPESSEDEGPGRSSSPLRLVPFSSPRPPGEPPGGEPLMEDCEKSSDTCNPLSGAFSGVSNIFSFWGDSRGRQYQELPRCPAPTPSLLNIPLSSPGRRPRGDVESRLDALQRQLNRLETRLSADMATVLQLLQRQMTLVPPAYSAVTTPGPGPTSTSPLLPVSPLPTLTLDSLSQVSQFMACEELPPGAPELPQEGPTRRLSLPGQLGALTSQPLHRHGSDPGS
row,Compound,"hERG current change (%, negative = inhibition) at 10uM [%]"
1,CCOC(=O)c1sc2nc(C)nc(NC3CCC(O)CC3)c2c1C (stereo not drawn),2.9
2,c1coc(CNc2ncnc3sc4c(c23)CCCCC4)c1,-39.4
3,Cc1ccc(C(=O)COC(=O)CNC(=O)Cc2ccccc2)cc1[N+](=O)[O-],11.7
4,CN(C)[C@@H]1C(=O)C(C(N)=O)=C(O)[C@@]2(O)C(=O)C3=C(O)c4c(O)cccc4[C@@](C)(O)[C@H]3[C@H](O)[C@@H]12.O,8.23
5,Cc1cc(C)nc(NNC2=CC(=[N+]3CCCCC3)CC(C)(C)C2)n1.[I-],-14.9
6,O=C(Cn1[nH]c(=O)c2ccccc2c1=O)NCc1cccnc1,22.4
7,COCCNC(=O)c1cccc(NC(=O)C2=C(C)OCCS2)c1,34
8,COc1ccc(S(=O)(=O)N2CCCCCC2)cc1C(=O)OCC(=O)NC(C)(C)C,-17.5
9,COc1ccc(C(=O)NC(=O)COC(=O)c2ccc(C)o2)cc1,-3.33
10,O=C(COC(=O)/C=C/c1nc2ccccc2s1)Nc1cccc2ccccc12,1.72
11,Cc1nc(Nc2cccc(C(C)O)c2)c2nnn(Cc3ccccc3F)c2n1 (stereo not drawn),-7.29
12,CC1(C)CC(=O)C(C(O)c2cccc([N+](=O)[O-])c2)C(C)(C)N1 (stereo not drawn),7.02
13,Cc1cccc(C(=O)NC(CC(=O)O)c2ccc(OC3CCCC3)cc2)c1[N+](=O)[O-] (stereo not drawn),23.8
14,Cc1cc(C)c(NC(=O)CSc2nnc(CNC(=O)c3c(F)cccc3Cl)o2)c(C)c1,12.3
15,CC1CN(C(=S)Nc2cccc([N+](=O)[O-])c2)CC(C)O1 (stereo not drawn),2.57
16,CCCNCc1cc(OC)c(OCCC)cc1Cl.Cl,-13.3
17,Cc1cc2c(ncn2C)c(NS(=O)(=O)c2ccc(F)cc2)c1C,0.6
18,O=C(Nc1nc2c(s1)CCCC2)c1cc2n(n1)C(C(F)(F)F)CC(C1CC1)N2 (stereo not drawn),7.66
19,CC1=CC(C)(C)NC(=S)N1c1ccc(C)cc1C,12.3
20,COc1ccc2[nH]cc(CCNC(=O)CS(=O)(=O)Cc3ccccc3)c2c1,11.3
21,CC12C=CC3(CN(Cc4ccccc4)C(=O)C3C1C(=O)NCc1ccco1)O2 (stereo not drawn),6.06
22,CN1CCN(CC(=O)Nc2nc(-c3c[nH]c4ccccc34)cs2)CC1,-23.9
23,O=c1c2ccccc2nc2n1C(CSCc1ccccc1)CS2 (stereo not drawn),-37.1

row,Compound,"hERG current change (%, negative = inhibition) at 10uM [%]"
1,Fc1ccc(-c2n[nH]c(=S)n2-c2ccc3c(c2)OCCO3)cc1,8.44
2,CCc1nc(SCC(=O)Nc2c(C)n(C)n(-c3ccccc3)c2=O)n[nH]1,-13.6
3,Cc1ccc(-n2cccn2)cc1,46.9
4,COc1ccc(NC(=O)COc2ccccc2C#N)c(S(=O)(=O)N2CCCCC2)c1,-21.8
5,Cc1ccc(NC(=O)CSc2cccc[n+]2[O-])c([N+](=O)[O-])c1,12.2
6,CSCCNCc1cn(-c2ccc(F)cc2F)nc1-c1ccccc1C,-48.7
7,CCc1cnccc1CCC(=O)Nc1ccccc1C,0.898
8,Clc1ccc(SCc2cc(-c3ccccc3)on2)cc1,0.436
9,CC(=O)c1cccc(NC(=O)CCC(=O)Oc2ccc(C)cc2)c1,-22
10,Cc1ccc([N+](=O)[O-])cc1NC(=O)c1ccc2c(c1)OCO2,11.4
11,O=S(=O)(Nc1nc2ccccc2nc1OCC(F)(F)F)c1cccs1,4.91
12,Cn1c(=O)c(=O)n(C)c2cc(S(=O)(=O)CCC(=O)Nc3ccc(F)cc3)ccc21,-2.6
13,Cn1c(SCC(=O)c2ccc3c(c2)OCO3)nnc1C1COc2ccccc2O1 (stereo not drawn),-19.8
14,FC(F)(F)c1cccc(NC(=S)N2CCCCCC2)c1,-11.5
15,COc1cccc(-c2nnn(CC(=O)Nc3ccc(C)cc3C)n2)c1OC,-1.38
16,CC(=O)c1cccc(N2C(=NC(=O)C3CC3)SC3CS(=O)(=O)CC32)c1 (stereo not drawn),0.996
17,CCOc1ccc(NC(=O)c2ccccc2OCC(=O)c2ccccc2)cc1,-3.22
18,Cc1cccc(N(CC(=O)NCc2ccco2)C(=O)CCC(=O)Nc2nccs2)c1,28.2
19,Cc1ccc(OCCCNC2CCCC2)cc1,-0.454
20,Cn1c(N)c(C(=O)COC(=O)CSc2ccc3ccccc3c2)c(=O)n(C)c1=O,-1.77
21,CCN(CC)CCN(C(=O)c1ccc2ccccc2c1)c1nc2ccc(F)cc2s1.Cl,-12.7
22,CC(=O)CCc1c(C)[nH]c2ccccc2c1=O,9.69
23,Cc1ccc(OCc2nc(-c3ccc(-n4cccc4)cc3)no2)cc1C,-0.988

row,Compound,"hERG current change (%, negative = inhibition) at 10uM [%]"
1,COc1ccc(C(=O)Nc2cc(C)on2)cc1OC,10
2,CCOc1ccccc1OCC(=O)Nc1ccc(S(=O)(=O)N(C)C)cc1,-18.7
3,COc1ccc(N2CCN(C(C)=C3C(=O)c4ccccc4C3=O)CC2)cc1,-53.3
4,Cc1ccccc1Oc1ncnc(N)c1[N+](=O)[O-],11.9
5,Cc1ccccc1NS(=O)(=O)c1cc(C(=O)N2CCCC2)ccc1C,-4.88
6,O=C(NCc1nnc(SCC(=O)N2CCCCC2)o1)c1ccc(F)cc1,10.2
7,COc1ccc(NC(=O)CSc2nc3ccccc3c(=O)n2CCCN2CCC(C)CC2)c(OC)c1,-81.6
8,Cc1ccc(NC(=O)CN(Cc2ccco2)Cc2ccccc2O)cc1C,7.36
9,Cn1c(=O)n(C)c2cc(/C=N/NC(N)=S)ccc21,13.4
10,CCn1c(=O)cc(N2CCCCC2)[nH]c1=O,11
11,CC(C(=O)NCC1CCCCC1)N(C)Cc1ccc(Br)cc1 (stereo not drawn),-2.07
12,C=CCOc1ccc(C(=O)Nc2ccc(OCC)cc2)cc1,15.3
13,O=S(=O)(NC1=NCCCCCC1)c1cccs1,3.19
14,Cc1ccc(NC(=O)N2C(=O)C3(OCCO3)c3ccccc32)cc1,18.2
15,Cc1cc(C)cc(NC(=O)C(=O)NCCCN2CCOCC2)c1,-6.69
16,COc1ccc(OCC(=O)c2c[nH]c3ccccc23)cc1,17.2
17,Cc1cc(C)nc(NC(=O)c2c(-c3ccccc3Cl)noc2C)c1,7.1
18,Cn1c2ccccc2c(=O)c2cc(C#Cc3ccsc3)ccc21,13.2
19,CC(C)(C)c1ccc(/C=C2\SC(=O)N(CCNC(=O)c3cccc(S(=O)(=O)N4CCOCC4)c3)C2=O)cc1,27.5
20,CC(=O)Nc1ccccc1-c1nc2ccccc2nc1OCC(=O)c1ccc(Cl)cc1,5.41
21,Cc1ccc(NC(=O)c2ccco2)c(NC(=O)CN2C(=O)c3ccccc3C2=O)c1,-1.76
22,COc1ccc(C)cc1NC(=O)CCCN1C(=O)C2CC=CCC2C1=O (stereo not drawn),-9.54
23,O=C(CCCC(=O)NCC1CCCO1)NCC1CCCO1 (stereo not drawn),1.79

row,Compound,"hERG current change (%, negative = inhibition) at 10uM [%]"
1,CCOc1ccccc1C(=O)NCC(=O)N(C)Cc1cccnc1,-3.07
2,COc1ccc(NS(=O)(=O)c2cc(S(C)(=O)=O)ccc2C)cc1,9.03
3,Cc1ccc(C(=O)c2cn(-c3ccc(F)c(Cl)c3)nn2)cc1,-13.6
4,O=C(Nc1ccc(S(=O)(=O)NCCc2ccccc2)cc1)c1ccc(Br)o1,8.63
5,CCC(C)(C)NC(=O)C1CCCN1C(=O)NC1CCCCC1 (stereo not drawn),19.6
6,COc1cccc(CNCCN2CCOCC2)c1OC,-2.63
7,CC1=[N+](CC(=O)c2ccccc2)CCn2cccc21.[Br-],13.9
8,C=CCc1cc(OC)ccc1OCCCCn1cncn1.O=C(O)C(=O)O,6.98
9,CCC(C)NC(=O)Cc1c(C)c2cc3c(cc2oc1=O)OC(C)(C)CC3 (stereo not drawn),18.9
10,COC(c1ccccc1)c1nnc(CCC(=O)N2CCN(Cc3cccs3)CC2)o1 (stereo not drawn),2.91
11,CCn1c(=O)n(CC)c2cc(N3CCCC3)c(NC(=O)c3ccccc3F)cc21,1.45
12,CC(C)Nc1nc(Cl)nc(NCCOc2ccccc2)n1,10.4
13,O=C(O)Cc1ccc(NC(=O)C2CCCCC2C(=O)O)cc1 (stereo not drawn),21.6
14,CCN(CC)CCCNC(=S)Nc1ccc(Br)cc1,-53.2
15,COC(=O)c1ccc(C(=O)NC(=S)Nc2nc3c(s2)CC(C)CC3)cc1 (stereo not drawn),2.73
16,CC(=O)OC1COC(N2CCc3cc(Br)c([N+](=O)[O-])cc32)C(OC(C)=O)C1OC(C)=O (stereo not drawn),5.8
17,OC(C#CCCN1CCCCC1)(c1ccccc1)c1ccccc1,-53.8
18,N#Cc1ccc(NC(=O)CN2CCCCCC2)cc1Cl,-21.3
19,CCOc1ccc(C(=O)Nc2cc(-c3nc4ccccc4[nH]3)ccc2C)cc1[N+](=O)[O-],-34.8
20,CCOc1nnnc2c1sc1nc(N3CCOCC3)c3c(c12)CCCC3,-3.1
21,COc1ccc(N(CC(=O)Nc2ccccc2C)S(=O)(=O)c2c(C)[nH]c(=O)[nH]c2=O)cc1,16
